# Paper PMC12136788
# This is one part of the list.
# B1: 16557741_16557861_4169_CDS_ENSMUSG00000070808_ENSMUST00000094821|mouse|control|control (ssRNA)
# RNA: GGGAGUUCUACAGUCCGACGAUCCGCCUGGGUAGCAGGAGGGAGUGGGGGCGGAGCUGGGUGUGGCGGAGGCUCCGCCCCUUUCGCUGGGGUUGGAGCCGGCAAGGGCUGAUGCACAGGAUCCAGUGCAGUGUUGUGCACCACCAACAGAGGAUUGAGCAUCA
# B2: 24661885_24671262_2684_CDS_ENSMUSG00000036893_ENSMUST00000102938|mouse|control|control (ssRNA)
# RNA: GGGAGUUCUACAGUCCGACGAUCCUCGUUGUCCCGGAUGUUGAUGUCAGAGCCCUUAGACAGCAGCAGCUUCACCAGCUCCACGUGCUUGUACUCAGUGGCCCAGAUCAUAGGUGUCCAUCCACCGUCAUCCUGGCAGUUGACCAACAGAGGAUUGAGCAUCA
# B3: chr1:39494564:39494565:+_ENSG00000168653_ENST00000372967|hu_hu|hu_hu_hu_mus_True|38_68 (ssRNA)
# RNA: GGGAGUUCUACAGUCCGACGAUCAUGCAUUCGCCUCAUCGUUUUGUACCGAAGCAAGCACUCUUCGAAAUCAUCAUACUCUAUCUUGCACUCCUUUUCUGCCCGAGUCCCACCGAUCCCGUGUGCACACUCUAUCCACUCUUUCAACAGAGGAUUGAGCAUCA
# B4: chr2:42472670:42472671:+_ENSG00000143924_ENST00000318522|hu_mus|motif|central (ssRNA)
# RNA: GGGAGUUCUACAGUCCGACGAUCCGUGACUCAAGAGCUGAGAGGCGGUCUUGAACGUCAGAGGUACUUGCAGCAGAAAUACGGUCAUCGAGGCUGCCGGCGAAACCGUCCAUCUUGCGGGGACCGCGCCGGGCUCGGGGCUCACAACAGAGGAUUGAGCAUCA
# B5: chr9:104324587:104324588:+_ENSG00000155827_ENST00000389120|hu_hu|FALSE|FALSE (ssRNA)
# RNA: GGGAGUUCUACAGUCCGACGAUCUUUGCGCUGGCGGGUGUCAUAGCGUGUCUUCACACACUCAAAGCAGAAGACAUGAAAACACUUAGUAAGAACAGCAUCCUUUUUACGCAUGUUACAGCACGGACAGGUCAAGCGUGCCUUCAACAGAGGAUUGAGCAUCA
# B6: chr4:95585135:95585136:+_ENSG00000163110_ENST00000317968|hu_hu|FALSE|FALSE (ssRNA)
# RNA: GGGAGUUCUACAGUCCGACGAUCCUUACACAGGGGCUUGUCCUUCUUGGAGAAAAAGGUCUGACCUUCCAAACUUUCACAACACACUGAGCAUACAAAGCAAGUGUCAUGCCAGGUGUAGCCCAGAGCUUCCAGGAACAUGUCCAACAGAGGAUUGAGCAUCA
# B7: chrX:153986339:153986340:-_ENSMUSG00000046873_ENSMUST00000058098|mus_mus|motif|central (ssRNA)
# RNA: GGGAGUUCUACAGUCCGACGAUCCACCAGGGACAUAAGACAUUCCAAGCUUUACUAUGUCAACAUAUAUUUACAGUAACGGUUCGACAAUCCUUUUUACAGCUUAAAUAGAAGCAUGCUUUUCUAGCCAUAAAUAACACUAAUCAACAGAGGAUUGAGCAUCA
# B8: chr12:55961440:55961441:-_ENSMUSG00000062929_ENSMUST00000078124|mus_hu|motif|central (ssRNA)
# RNA: GGGAGUUCUACAGUCCGACGAUCGAUAUUCAAAAUAUCUUUAGUGUUGCAGGACUCACAUGGUAAACAUAAAACUCCGGCACUUAUUCAGUAGUGUACACUCAAUGGAAAACAAAAAGGCAUUAAUAACAGCUAUUUCUUUUACAACAGAGGAUUGAGCAUCA
# B9: chr5:40834624:40834625:-_ENSG00000145592_ENST00000508493|hu_mus|FALSE|FALSE (ssRNA)
# RNA: GGGAGUUCUACAGUCCGACGAUCGUUAUACUUCCUCUUGCGCUUGGCAGGGUAGCCACACUUGCCACAAGUCGACUUCUGAAGGUGGUAGGCCUUGGAGCCACAGCGGCGGCACAGCGUGUGCGUCUUGUUGCGACGCUUACCCAACAGAGGAUUGAGCAUCA
# B10: chr15:43486971:43486972:+_ENSG00000166946_ENST00000300213|hu_hu|motif|central (ssRNA)
# RNA: GGGAGUUCUACAGUCCGACGAUCGAGCUCCUUGAUUCUAUUCAUGCAAUGAUCAAUGGCAUUAAUAAGUAAAGGGAUCCAACGGUCUUCUGGCUGAGGGGUCACAUGACUUGCUUUUGUAAUUUCAAGUGCCUUCUUUAAAACCAACAGAGGAUUGAGCAUCA
# B11: chr5:128440902:128440903:+_ENSG00000066583_ENST00000173527|hu_mus|hu_hu_hu_mus_True|58_58 (ssRNA)
# RNA: GGGAGUUCUACAGUCCGACGAUCUUGAACGGUGCUGCCAAGUCCUUUGGGGUAUUGUUCCGUUAUGAUAACUGGAAUUCCUAAAAUCCGAGCUCCUUGCAACAGUCUCUGUCCCACACUAAUGAUGUCCCCAAAGUAUUUGAUCAACAGAGGAUUGAGCAUCA
# B12: chr11:46765198:46765199:-_ENSG00000175216_ENST00000415402|hu_hu|motif|central (ssRNA)
# RNA: GGGAGUUCUACAGUCCGACGAUCACAGAAUACAGUGACCCUUCAGGGCGACAGAGAAGAGCUCACAAACUGAAAGGAAAACGGUUAAAGAGUUUCUAAUAUUAACUAUUAAAAAGCUAGGAAAGAUUAGGACAAUUUUACAAACAACAGAGGAUUGAGCAUCA
# B13: 229611474_229613458_1793_CDS_ENSG00000069248_ENST00000261396|human|control|control (ssRNA)
# RNA: GGGAGUUCUACAGUCCGACGAUCUGCUUCCUCAGGGACAGACUCAGCCCACCGUGGGUCAGAUGCUGGGUAGUCAUCCAUCAGGUCUACACUGAUUUGGGUAACUGCCCUGUCUAGUUCAGAAUCAGAAUCCAAAUCAGAGUGCAACAGAGGAUUGAGCAUCA
# B14: 165749694_165756912_2094_CDS_ENSG00000112541_ENST00000354448|human|control|control (ssRNA)
# RNA: GGGAGUUCUACAGUCCGACGAUCCCCAAGCUGGCCUUGGGGGACUUCAUCCUUCUUGUCUCUGUCCAUCAUAGGAAUAGGCUGUAUUCCCAAUUUCUUCAUUUCAUCACCCUCAGCCCAGAAUUCUGCAUAUAUAUCAUUUGCCAACAGAGGAUUGAGCAUCA
# B15: chr9:35067926:35067927:-_ENSG00000165280_ENST00000358901|hu_mus|FALSE|FALSE (ssRNA)
# RNA: GGGAGUUCUACAGUCCGACGAUCUGGCUGGAUGCUGAUGACAUCUCCUAGGCGAACUCGGAGGUUAUUCCGAACAACUCUAUUCAUUCGAAUCUUCUCAUCAGAACACGUGUCAUCAGAAAGAACAAUGCAUACAGCUUCCCGCAACAGAGGAUUGAGCAUCA
# B16: chrX:20248820:20248821:+_ENSMUSG00000001924_ENSMUST00000001989|mus_mus|mus_mus_mus_hu_True|8_98 (ssRNA)
# RNA: GGGAGUUCUACAGUCCGACGAUCGGCGAAGUCCGUCAUCACAAAGUCAGGUUCUGCCAGUGAGGCCACCAAGGAUUUAAAGCUAAUCUUCUUAGGUACUUUGACCUGACUGACGAUGCCUCCACGGAUGUAGUCAGAGAAGUUCAACAGAGGAUUGAGCAUCA
# B17: chr1:174052150:174052151:+_ENSMUSG00000026553_ENSMUST00000135192|mus_hu|FALSE|FALSE (ssRNA)
# RNA: GGGAGUUCUACAGUCCGACGAUCUCCUUUCUAGUUGACAGGAAAGAAAGCUGCUGUGGGGAAAGGAGGGAUAAAUACUGAAGGGAUUUACUAAACAAAUGUCCAUCACAGAGUUUUCCUUUUUUUUUUUUUUGAGACAGAGUCCAACAGAGGAUUGAGCAUCA
# B18: chr1:46865451:46865452:-_ENSMUSG00000025986_ENSMUST00000027131|mus_mus|FALSE|FALSE (ssRNA)
# RNA: GGGAGUUCUACAGUCCGACGAUCCUCAAAUUUUUGUUUUUGUCUUAAAAGGAAAAUCAGAGUAAGAGGAAAAGAACCAGAGAAGGGACUGAAUAAAAAUAUUUAAAAUGGAAAGGCCAGGGUUUGGCUCUUAUGUGGUUUUUCCAACAGAGGAUUGAGCAUCA
# B19: chr7:54823571:54823572:-_ENSG00000132432_ENST00000352861|hu_mus|hu_hu_hu_mus_False|88_108 (ssRNA)
# RNA: GGGAGUUCUACAGUCCGACGAUCUCCCAUUAUAGCAAAUCCUAUAGCUGUUGCCAUGGCAAUCUUCUGGAAUUCUUUUCUGUCGGGUUUGGUGCAUCUUUUAACCAGCCGAAUUGAGUCCUUUACAAACUGCCGGCUGGGCUCCAACAGAGGAUUGAGCAUCA
# B20: chr6:38652254:38652255:-_ENSG00000124767_ENST00000373365|hu_hu|hu_hu_hu_mus_False|1_18 (ssRNA)
# RNA: GGGAGUUCUACAGUCCGACGAUCCGAGAACUUCAUAGCAGGGAAGUCAAGCUUCUGCAGGAGGGUCAGUCCAAGAACCCUCGUAUAAAAAUCCAGGGACUUCUUAGGAUCCUUAAUUCGUAGCAUGGUUUGCUGCAAUAGAAACAACAGAGGAUUGAGCAUCA
# B21: chr5:111714535:111714536:+_ENSMUSG00000033209_ENSMUST00000156290|mus_hu|FALSE|FALSE (ssRNA)
# RNA: GGGAGUUCUACAGUCCGACGAUCAUCUGAGCUUGCUAGUUUUCCCACCUUUUGGAAGGGUGAGUUGGGGCUGGGAAUCAGAGUCAUUUUCACUGGAGAAUUUGGAGUGCUGAUGCUCCCUUUGGAGCUCACCGAGACUCUCAUCAACAGAGGAUUGAGCAUCA
# B22: chr1:186286705:186286706:-_ENSG00000047410_ENST00000367478|hu_mus|motif|central (ssRNA)
# RNA: GGGAGUUCUACAGUCCGACGAUCGAUGCUUGGACAGGCUCCUCUUCCUGCUGGCUAUCAAUUUCUAGGCCUGCCUCUGAACGGAUACCUUCAGACUCCGCCUCUACAAAUACUUCAUCUCCGUCGUCACCUGCUGCUGUUUCGCAACAGAGGAUUGAGCAUCA
# Molecular target: T1, UNK ZnF1-3 (human, UniProt Q9C0B0 31-174)
# T1 sequence: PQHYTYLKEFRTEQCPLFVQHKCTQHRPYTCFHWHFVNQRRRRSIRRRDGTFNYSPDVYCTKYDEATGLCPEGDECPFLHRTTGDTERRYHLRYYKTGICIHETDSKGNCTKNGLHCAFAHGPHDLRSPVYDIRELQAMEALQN
# Assay: nsRBNS (natural sequence RNA bind-n-seq); RBNS binding buffer (assumed for nsRBNS): 25 mM Tris pH 7.5, 150 mM KCl, 3 mM MgCl2, 0.01% Triton X-100, 500 ug/ml BSA, 20 U/ml SUPERase-In, 4 C; UNK is unkempt and MSI1 is Musashi-1; names of the RNAs are library labels; protein concentration not given here; high values mean tight binding
row,Binder,binding signal [enrichment R]
1,B1,0.722
2,B2,1.08
3,B3,0.749
4,B4,1.12
5,B5,0.559
6,B6,1.21
7,B7,1.28
8,B8,1.13
9,B9,0.51
10,B10,1.05
11,B11,0.939
12,B12,2.09
13,B13,0.879
14,B14,0.762
15,B15,0.8
16,B16,0.908
17,B17,1.27
18,B18,2.62
19,B19,0.693
20,B20,0.678
21,B21,0.903
22,B22,0.899
